Experimental data published in PubChem BioAssay AID493014 (National Center for Advancing Translational Sciences (NCATS), 2011).
Screen size: about 340,000 compounds; about 170 (0.05%) were called active. Another 26% or so got no clear call; they are omitted. Calls follow the shape of the dose curve; as a rule, active = well fitted inhibition curve with a large enough effect in the signal ratio, with a control signal flat (not every such curve was filed as active); inconclusive = small, poorly fitted or top-dose-only effect, or effect the other way, or a change in a side signal; inactive = flat fitted curve, though single readings scatter; the % refers to the signal ratio. The entries are a selection whose mix differs from that of the whole data set.

experiment: qHTS Assay to Find Inhibitors of Chronic Active B-Cell Receptor Signaling; settings: ABC-DLBCL IkBa-CBG/CBR reporter, luminescence ratio (green luciferase fused to IkBa over red control in TMD8 lymphoma cells), 4 h; series mostly up to 46.1 µM; activity change, negative = inhibition: at the top concentration;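 as to activity change, negative = inhibition: plate controls were basal doxycycline-induced cells for no effect and cells given 10 µM MG132 for full effect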
In short: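 Cell line TMD8 (human ABC DLBCL), stably expressing tet-inducible CBG68-IkBa fusion and CBR; IMDM/0.5% FBS; cpd up to 46 uM; dox induction, 4 h, 37C/5% CO2; dual luminescence; green/red ratio; MG132 control.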
Potency is read from the fitted curve at half-maximal effect.

Row | Structure (SMILES) | activity change, negative = inhibition | Potency
1 | Cc1cc(N2C(=O)C3C4CC(C(Br)C4Br)C3C2=O)no1 (configuration not stated) | inactive: 0.466% | 
2 | CC(C)(C)OC(=O)C[C@H]1C/C=C\C[C@@H](CC(=O)N[C@@H](CO)Cc2ccccc2)C(=O)N2CCC[C@@H]2COC1=O | inactive: -1.39% | 
3 | Cn1ccc2cc(-c3ccc4ncnc(NCc5cccs5)c4c3)ccc21 | inactive: -12.9% | 
4 | O=C(C[C@H]1C/C=C\CC[C@H](Cc2ccc(F)cc2)C(=O)OCCNC1=O)NCCO | inactive: 1.72% | 
5 | CCOC(=O)[C@@H]1[C@H]2COc3ccccc3[C@@H]2N2C(=O)N(c3cccc(Cl)c3)C(=O)[C@]12C | inactive: 11.5% | 
6 | CC1=CS(=O)(=O)CC1Sc1nc2ccccc2[nH]1 (configuration not stated) | inactive: -0.385% | 
7 | C[C@@]12C(=O)N(c3ccc(F)cc3)C(=O)N1[C@@H]1c3ccccc3OC[C@@H]1[C@H]2c1ccccc1 | inactive: -1.75% | 
8 | Cc1cn([C@H]2C=C[C@@H](CO)O2)c(=O)[nH]c1=O | inactive: 2.11% | 
9 | Cc1c(C(=O)Nc2ccc(F)c(F)c2)oc2ccc(S(=O)(=O)N3CCCCC3)cc12 | inactive: 9.05% | 
10 | CC(=O)CC(c1ccccc1)c1c(O)c2ccccc2oc1=O (configuration not stated) | inactive: -0.146% | 
11 | O=c1cc(-c2cccc(F)c2)[nH]c2ccccc12 |  | active: 20.6 µM
12 | CC(/C=C1\SC(=S)N(C(C(=O)O)C(C)C)C1=O)=C\c1ccccc1 (configuration not stated) | inactive: 0.472% | 
13 | COC(C[C@H](O)C[C@@H](O)[C@@H](C)OCc1ccccc1)OC | inactive: -0.571% | 
14 | COc1cc(NC(=O)N2CCNC2=O)cc(C(=O)Nc2cccc(C(F)(F)F)c2)c1 |  | active: 17.8 µM
15 | COc1ccc(-c2noc(CSc3nc(N)c(-c4ccccc4)c(=O)[nH]3)n2)cc1 |  | active: 16.4 µM
16 | NC(=O)c1ccnc2c(O)cccc12 | inactive: 17.7% | 
17 | CC(C)(C)OC(=O)C[C@@H]1C/C=C\C[C@@H](CC(=O)N(CCO)Cc2ccccc2)C(=O)N2CCC[C@H]2COC1=O | inactive: 0.208% | 
18 | Cc1ccc(C(=O)/C=C/C(=O)c2ccc(C)cc2)cc1 | inactive: 2.07% | 
19 | C=CCN=C1N[C@@H](c2cccc(C(F)(F)F)c2)C(C(=O)OC)=C(C)N1CC | inactive: -5.67% | 
20 | COc1ccc2c(c1OC)C(=O)O[C@@H]2[C@H]1c2c(cc3c(c2OC)OCO3)CCN1C | inactive: 3.37% | 
21 | O=C(NN1C(=O)C2C3C=CC([C@@H]2C1=O)C31CC1)c1ccccc1 (some centres not stated) | inactive: 0.471% | 
22 | COc1ccc(NC(=O)N(C)C[C@H]2Oc3ccc(NS(=O)(=O)c4cccs4)cc3C(=O)N([C@H](C)CO)C[C@@H]2C)cc1 | inactive: -0.296% | 
23 | COc1ccc(/C=N/NC(=O)c2ccc(CSc3nc(C)cc(C)n3)cc2)cc1O |  | active: 16.4 µM
24 | CCN1C(=O)[C@@H]2[C@@H](c3ccc(-c4ccc(F)cc4)cc3)N3CCCC[C@@]3(C(=O)OC)[C@@H]2C1=O | inactive: 0.778% | 
25 | O=C(C1=C[C@H](C2CCCCC2)C[C@H](OCCCCO)O1)N1CCN(Cc2ccccc2)CC1 | inactive: 8.01% | 
26 | CC(=O)C[C@@H](O)CC(=O)[C@@H]1OC(=O)CCCCCc2ccccc21 | inactive: -2.19% | 
27 | C=CCN1C(=O)C2(c3ccccc31)C1CCCC=C1C(C#N)=C(N)C2(C#N)C#N (configuration not stated) | inactive: -0.748% | 
